Laboratory results reported in the supplement of paper PMC7826260.
The other results are listed elsewhere or left out. One pool of 16,384 single-stranded DNAs met each Rep nickase domain in vitro (1 h at 37 °C, 3 µM enzyme); the outer parts of the 90-letter strands are left off. Numbers give uncut DNA relative to the enzyme-free pool, as log2; more negative means more cut, near 0 not cut, and no call is made. Counts are relative to all reads; where an enzyme cuts many sequences, the uncut ones exceed 0.

Each sequence was assayed on T1, Rep nickase domain of tomato yellow leaf curl virus (assay: uncleaved DNA left, log2 of reads against the no-enzyme library (log2 ratio); higher = less cleavage (more negative = more Rep cleavage of the k-mer); sequences stand for … in CTCGTCCG…ACCGGAGA).
T1 sequence (protein, residues 1-136, tag omitted): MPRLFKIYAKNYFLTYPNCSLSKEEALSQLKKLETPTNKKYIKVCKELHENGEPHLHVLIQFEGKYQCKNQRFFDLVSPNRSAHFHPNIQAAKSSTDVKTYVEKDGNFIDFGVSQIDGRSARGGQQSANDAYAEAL
Description: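 A pool of 90-nt single-stranded DNAs with seven random bases just before the constant AC of the nick site (name = the seven bases) was cut by 3 µM recombinant His6-SUMO-tagged Rep nickase domain (300 nM DNA, 50 mM HEPES pH 8.0, 50 mM NaCl, 1 mM MnCl2, 1 h, 37 °C, three replicates). Uncut DNA was amplified and sequenced.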

CTAATCG was tested. Which “uncleaved DNA left (log2)” value did it give?
Its value is 0.0964.

Which “uncleaved DNA left (log2)” value does the source give for CTGGATT here?
The value was 0.273.

Which “uncleaved DNA left (log2)” value does the source give for ATTACGA here?
The value was -0.00118.

How did the “uncleaved DNA left (log2)” value turn out when CAGACAT was run?
Its value is 0.0771.

GCGAGGA was tested. Which “uncleaved DNA left (log2)” value did it give?
Its value is -0.0901.

Which “uncleaved DNA left (log2)” value does the source give for CCACTTC here?
The value was -0.000406.

With TGACTAC as the sequence, how does the “uncleaved DNA left (log2)” value read?
Its value is 0.00358.

With GGCACAT as the sequence, how does the “uncleaved DNA left (log2)” value read?
The value was 0.00967.

ATCCGCC was tested. Which “uncleaved DNA left (log2)” value did it give?
Its value is 0.00975.

How did the “uncleaved DNA left (log2)” value turn out when GTAGCTC was run?
The value was -0.0114.

With CAAAACA as the sequence, how does the “uncleaved DNA left (log2)” value read?
Its value is -0.0899.

GCATTAC was tested. Which “uncleaved DNA left (log2)” value did it give?
The value was 0.0214.

Which “uncleaved DNA left (log2)” value does the source give for ATTCTCA here?
Its value is 0.241.

How did the “uncleaved DNA left (log2)” value turn out when AATTTCA was run?
The value was -0.0707.

Which “uncleaved DNA left (log2)” value does the source give for ACAAGAT here?
Its value is 0.0314.

How did the “uncleaved DNA left (log2)” value turn out when GACTCAT was run?
Its value is 0.0373.

For TGACGAA, which “uncleaved DNA left (log2)” value is on record?
The value was 0.0241.

For TCAGTCA, which “uncleaved DNA left (log2)” value is on record?
The value was 0.0244.

With TGCGCAC as the sequence, how does the “uncleaved DNA left (log2)” value read?
The value was 0.0468.

AAGGCTT was tested. Which “uncleaved DNA left (log2)” value did it give?
The value was -0.0739.

Which “uncleaved DNA left (log2)” value does the source give for CTAGTCG here?
The value was -0.00274.

For GCGCGCG, which “uncleaved DNA left (log2)” value is on record?
Its value is 0.0131.

How did the “uncleaved DNA left (log2)” value turn out when TGAAACA was run?
Its value is 0.0292.

TGCTGAA was tested. Which “uncleaved DNA left (log2)” value did it give?
Its value is 0.0726.

How did the “uncleaved DNA left (log2)” value turn out when CAATAAC was run?
The value was 0.0214.

For TTGCACT, which “uncleaved DNA left (log2)” value is on record?
The value was -0.0481.

How did the “uncleaved DNA left (log2)” value turn out when GTCGGGG was run?
The value was 0.037.

With ACACGCG as the sequence, how does the “uncleaved DNA left (log2)” value read?
Its value is 0.12.

With GTTCCGC as the sequence, how does the “uncleaved DNA left (log2)” value read?
The value was 0.0815.

With AATTTAA as the sequence, how does the “uncleaved DNA left (log2)” value read?
The value was -0.124.

ATGATTG was tested. Which “uncleaved DNA left (log2)” value did it give?
Its value is 0.0548.

How did the “uncleaved DNA left (log2)” value turn out when CGGATGA was run?
The value was -0.13.

How did the “uncleaved DNA left (log2)” value turn out when TAGCTTG was run?
The value was -0.133.

For GTCGTAA, which “uncleaved DNA left (log2)” value is on record?
The value was 0.0911.

With CCGGACA as the sequence, how does the “uncleaved DNA left (log2)” value read?
The value was -0.122.

TGTTCCA was tested. Which “uncleaved DNA left (log2)” value did it give?
Its value is 0.113.

GCACGCT was tested. Which “uncleaved DNA left (log2)” value did it give?
Its value is 0.00285.

With ACAATGG as the sequence, how does the “uncleaved DNA left (log2)” value read?
The value was 0.0285.

How did the “uncleaved DNA left (log2)” value turn out when TCGGATA was run?
Its value is -0.00194.

For CCCGCCT, which “uncleaved DNA left (log2)” value is on record?
Its value is -0.251.
